Source: PubChem BioAssay AID1030 (National Center for Advancing Translational Sciences (NCATS), 2008)
Where “and” joins values, the source holds several entries; their conditions need not be identical. Equal entries are not always repeated. Among all 220,000 compounds or so, about 16,000 (7.3%) were called active. Inconclusive results, whose numbers are uncertain, are shown with a selection of clear calls. Calls come from the whole dose curve; as a rule, active = well fitted inhibition curve with a large enough effect (not every such curve was filed as active); inconclusive = small, poorly fitted or top-dose-only effect, or another doubt; inactive = no such curve, though single readings can be large or run the other way. Potencies of inconclusive entries are doubtful fits and often do not repeat.

biological target: Aldehyde dehydrogenase 1A1 (Homo sapiens) (UniProt P00352); test: qHTS Assay for Inhibitors of Aldehyde Dehydrogenase 1 (ALDH1A1); conditions: Purified ALDH1A1, NADH fluorescence, propionaldehyde substrate; series mostly up to 75.3 µM; activity, negative = inhibition: at the top concentration;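 for activity, negative = inhibition: plate controls were no enzyme wells and a reference inhibitor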
Sequence of UniProt P00352 (P00352 whole entry, looked up): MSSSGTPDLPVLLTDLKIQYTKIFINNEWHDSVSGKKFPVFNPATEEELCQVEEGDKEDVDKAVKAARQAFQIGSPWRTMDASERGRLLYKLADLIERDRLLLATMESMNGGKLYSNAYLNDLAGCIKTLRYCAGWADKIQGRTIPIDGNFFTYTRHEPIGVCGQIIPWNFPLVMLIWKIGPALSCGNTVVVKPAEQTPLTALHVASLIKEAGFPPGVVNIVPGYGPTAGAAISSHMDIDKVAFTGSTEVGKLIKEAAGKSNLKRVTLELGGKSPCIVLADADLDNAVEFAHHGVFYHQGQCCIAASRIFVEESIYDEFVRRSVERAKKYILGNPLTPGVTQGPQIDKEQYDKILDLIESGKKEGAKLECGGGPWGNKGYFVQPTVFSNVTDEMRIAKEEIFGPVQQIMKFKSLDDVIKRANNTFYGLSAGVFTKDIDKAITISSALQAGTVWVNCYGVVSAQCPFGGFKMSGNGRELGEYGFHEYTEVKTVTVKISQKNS
Potency is the fitted concentration of half-maximal effect; tags give direction and shape of the fitted curve.

Which Potency does the source give for COc1ccc(-c2nc3ccc(C)cn3c2NCc2ccc3c(c2)OCO3)cc1 here?
Its Potency is inconclusive: 28.2 µM [inhibitor, partial curve].

Which Potency does the source give for COc1ccc(CCN(Cc2nc3ccccc3c(=O)[nH]2)C(=O)c2ccco2)cc1OC here?
The Potency was inconclusive: 39.8 µM [inhibitor, single point].

COc1cccc(NC(=O)N2CCCc3ccccc32)c1 was tested. Which Potency did it give?
Its Potency is inconclusive: 12.6 µM [inhibitor, partial curve, poor fit].

How did the Potency turn out when Cc1ccccc1N1Cc2ccccc2C1 was run?
The Potency was active: 28.2 µM.

How did the “activity, negative = inhibition” value turn out when COc1ccc(N=Nc2[nH]c3ccc(C)cc3c2O)cc1 was run?
Its value is inactive: -11.2%.

Which Potency does the source give for Cc1nc2nc[nH]n2c(=O)c1NS(=O)(=O)c1ccc([N+](=O)[O-])cc1 here?
Its Potency is inconclusive: 35.5 µM [inhibitor, single point].

With COn1c(C)c(C(C)=O)c2c3nonc3ccc21 as the compound, how does the Potency read?
Its Potency is inconclusive: 20 µM [inhibitor, partial curve].

With CCC[C@H]1C[C@H](C(=O)N[C@H]([C@@H]2O[C@H](SC)[C@@H](O)[C@H](O)[C@@H]2O)[C@H](C)O)N(C)C1 as the compound, how does the “activity, negative = inhibition” value read?
The value was inactive: 2.08% [at 20.9 µM].

Cc1ccc(C)c(SCC(=O)OCC(=O)c2ccco2)c1 was tested. Which Potency did it give?
The Potency was inconclusive: 39.8 µM [inhibitor, single point].

CCC(=O)NC(c1cccc([N+](=O)[O-])c1)c1c(O)ccc2ccccc12 (stereo unspecified) was tested. Which Potency did it give?
Its Potency is inconclusive: 7.94 µM [inhibitor, single point].

How did the Potency turn out when CCOC(=O)c1cc2c(=O)n3ccccc3nc2n(Cc2ccco2)c1=NC(=O)c1ccccc1OC was run?
The Potency was inconclusive: 35.5 µM [inhibitor, partial curve].

With Cc1cc(C)c(C(=O)/C=C/c2ccco2)c(=O)[nH]1 as the compound, how does the Potency read?
The Potency was active: 11.2 µM.

For CCOc1cc(NC(=O)c2cccs2)c(OCC)cc1NC(=O)c1ccco1, which Potency is on record?
The Potency was inconclusive: 39.8 µM [inhibitor, single point].

For COc1cc(NC(=O)c2cnn3c(C)cc(C)nc23)c(OC)cc1Cl, which Potency is on record?
The Potency was inconclusive: 28.2 µM [inhibitor, single point].

How did the Potency turn out when Clc1ccccc1-c1nnc2sc(-c3ccco3)nn12 was run?
Its Potency is inconclusive: 28.2 µM [inhibitor, single point].

How did the “activity, negative = inhibition” value turn out when c1ccc(-c2cc(N3CCOCC3)nc(-c3ccccc3)n2)cc1 was run?
The value was inactive: -9%.

For O=C(C1CCN(S(=O)(=O)N2CCOCC2)CC1)N1CCN(c2ccccc2F)CC1, which Potency is on record?
Its Potency is inconclusive: 25.1 µM [inhibitor, partial curve].

Which “activity, negative = inhibition” value does the source give for COC(=O)c1ccc(NC(=S)NCCCn2ccnc2)cc1 here?
Its value is inactive: 1.73%.

For Nc1nc2n(n1)C(c1c(F)cccc1Cl)CC(c1ccc(F)cc1)N2 (stereo unspecified), which “activity, negative = inhibition” value is on record?
Its value is inactive: 5.59%.

How did the Potency turn out when CCOC(=O)COc1cccc2c(=O)n(CC(=O)N3CCCc4ccccc43)ccc12 was run?
The Potency was inconclusive: 39.8 µM [inhibitor, single point].

For CCOC(=O)C(=NCCCN1CCOCC1)NNc1cccc(C(F)(F)F)c1, which “activity, negative = inhibition” value is on record?
Its value is inactive: 2.69%.

CC(C)N(CCO)C(=O)CCc1nnc(CCCc2ccccc2)o1 was tested. Which Potency did it give?
Its Potency is inconclusive: 39.8 µM [inhibitor, single point].

How did the Potency turn out when Cc1ccc(N(Cc2ccco2)C(=O)c2ccc(N3CCCCC3)c([N+](=O)[O-])c2)cc1 was run?
The Potency was inconclusive: 20 µM [inhibitor, partial curve].

Cc1ccc(-n2c(SCC(=O)NCc3ccco3)nnc2-c2cccnc2)cc1 was tested. Which Potency did it give?
The Potency was inconclusive: 39.8 µM [inhibitor, single point].

Which Potency does the source give for Cc1c(C)c2cc(Cl)c(O)c(CN3CCN(C)CC3)c2oc1=O here?
The Potency was inconclusive: 6.31 µM [inhibitor, partial curve].

How did the Potency turn out when C=CCn1cc(-c2cccc(C(F)(F)F)c2)cc(C#N)c1=O was run?
The Potency was inconclusive: 25.1 µM [inhibitor, partial curve].

Which Potency does the source give for COc1ccc(CNC(=O)C2CCNCC2)cc1 here?
Its Potency is inconclusive: 39.8 µM [inhibitor, partial curve, poor fit].

For CCOCC(=O)Nc1cc(C(=O)OC)ccc1C(=O)OC, which Potency is on record?
Its Potency is inconclusive: 35.5 µM [inhibitor, single point].

How did the Potency turn out when Cc1csc(=NC(=O)c2ccccc2)n1C was run?
The Potency was inconclusive: 25.1 µM [inhibitor, single point].

How did the “activity, negative = inhibition” value turn out when COc1cc(O)c(C(=O)/C=C/c2ccccc2)c(OC)c1 was run?
The value was inactive: 0.391%.

With Cc1ccc(C2NC(=O)CCC2[N+](=O)[O-])cc1 (stereo unspecified) as the compound, how does the Potency read?
Its Potency is inconclusive: 2 µM [inhibitor, full curve, poor fit].

Which Potency does the source give for Cc1ccc(NC(=O)CSc2nsc(SCC(=O)Nc3ccc(C)cc3C)c2C#N)c(C)c1 here?
Its Potency is inconclusive: 39.8 µM [inhibitor, partial curve, poor fit].

Which Potency does the source give for COc1ccc(OCCn2cc(/C=N/NC(=O)c3ccncc3)c3ccccc32)cc1 here?
Its Potency is inconclusive: 39.8 µM [inhibitor, single point].

How did the Potency turn out when CCOCCCNCc1ccc(OCCC(C)C)c(OC)c1 was run?
Its Potency is inconclusive: 14.1 µM [inhibitor, partial curve].

Cc1ccc(S(=O)(=O)N2CCN(C(=O)c3ccccc3)CC2)c(C)c1NS(C)(=O)=O was tested. Which “activity, negative = inhibition” value did it give?
Its value is inactive: 5.15%.

How did the Potency turn out when N#Cc1cnn2c(-c3ccccc3)ccnc12 was run?
The Potency was inconclusive: 28.2 µM [inhibitor, partial curve].

For Cc1csc(SCC(=O)NC(=O)NCc2ccccc2)n1, which Potency is on record?
Its Potency is inconclusive: 39.8 µM [inhibitor, single point].

Cc1ccc(S(=O)(=O)N2CCN(CC(=O)NC(=O)NCc3ccccc3)CC2)cc1C was tested. Which “activity, negative = inhibition” value did it give?
Its value is inactive: 1.51%.

O=[N+]([O-])c1cc(C2Nc3cccc4cccc(c34)N2)ccc1Cl was tested. Which “activity, negative = inhibition” value did it give?
Its value is inactive: -2.8%.

Which Potency does the source give for CN1CCN(c2ncc3ncc(=O)n(C4CC4)c3n2)CC1 here?
Its Potency is inconclusive: 28.2 µM [inhibitor, partial curve].

How did the “activity, negative = inhibition” value turn out when CN(C)C(=O)c1ccc(-c2nc(NC3CCNCC3)c3ccccc3n2)cc1 was run?
Its value is inactive: -12.3%.

Which Potency does the source give for CCCCOC(=O)c1cc2c(cn1)[nH]c1ccccc12 here?
Its Potency is inconclusive: 31.6 µM [inhibitor, single point] and inconclusive: 25.1 µM [inhibitor, partial curve] and inconclusive: 15.8 µM [inhibitor, partial curve].

For CCCc1c(C(=O)Nc2cc(C)on2)cnn1-c1ccccc1, which Potency is on record?
Its Potency is active: 17.8 µM.

How did the Potency turn out when O=C(O)c1cc2cc(OCc3ccccc3)ccc2[nH]1 was run?
The Potency was inconclusive: 35.5 µM [inhibitor, single point].

How did the Potency turn out when CCCc1nnc(SCC(=O)N2CCCC(C)C2)n1CCCOC (stereo unspecified) was run?
The Potency was inconclusive: 44.7 µM [inhibitor, single point].

CCCCC1=CC2=C(c3ccco3)C(=O)C(C)(OC(=O)c3ccc(OC)cc3)C(=O)C2=CN1CCc1c[nH]c2ccccc12 (stereo unspecified) was tested. Which activity, negative = inhibition did it give?
The activity, negative = inhibition was inactive: 11.2% [at 13.5 µM].

For COc1ccccc1CN1CCNC(=O)C1CC(=O)NCCC1=CCCCC1 (stereo unspecified), which Potency is on record?
Its Potency is active: 25.1 µM.

How did the Potency turn out when CC(=O)N1N=C(c2ccc(C)o2)CC1c1cccc(F)c1 (stereo unspecified) was run?
The Potency was active: 14.1 µM.

O=C1N(Cc2cccnc2)C[C@@H]2C[C@@H](c3ccc(-c4ccccc4)cc3)N3CCC[C@@]123 was tested. Which Potency did it give?
Its Potency is inconclusive: 44.7 µM [inhibitor, single point].

For S=c1[nH]nc(/C=C/c2ccccc2)o1, which Potency is on record?
The Potency was inconclusive: 28.2 µM [inhibitor, partial curve].

For O=C(COC(=O)c1ccc2c(c1)OCO2)NCc1ccc(Cl)cc1, which “activity, negative = inhibition” value is on record?
The value was inactive: 10.1%.

How did the Potency turn out when O=C(Nc1ccccc1N1CCOCC1)C1CCN(S(=O)(=O)c2ccccc2F)CC1 was run?
The Potency was inconclusive: 44.7 µM [inhibitor, single point].

Which Potency does the source give for COc1ccc(C2=C(C#N)C(=O)OC2)cc1 here?
The Potency was inconclusive: 31.6 µM [inhibitor, partial curve].

Cc1ccc(C(=O)C2(C)C3c4cc(Br)ccc4OC(=O)C32C(=O)c2ccco2)cc1 (stereo unspecified) was tested. Which “activity, negative = inhibition” value did it give?
Its value is inactive: -3.74%.

O=[N+]([O-])c1ccc(Cl)cc1N1CCOCC1 was tested. Which “activity, negative = inhibition” value did it give?
The value was inactive: 5.69%.

C=C(C(C)=O)C(O)/C=C/c1ccco1 (stereo unspecified) was tested. Which “activity, negative = inhibition” value did it give?
The value was inactive: -14.1%.

Which Potency does the source give for O=C(N=Nc1c(O)[nH]c2ccc([N+](=O)[O-])cc12)c1ccccc1Cl here?
The Potency was inconclusive: 8.91 µM [inhibitor, partial curve].

How did the Potency turn out when COc1ccc(C2=NN3C(C2)c2ccccc2OC3c2cccs2)cc1 (stereo unspecified) was run?
The Potency was inconclusive: 39.8 µM [inhibitor, single point].

With CC1(C)[C@@H]2CC[C@]1(C)[C@@H](OC(=O)CSC#N)C2 as the compound, how does the Potency read?
The Potency was active: 1.78 µM.

With Cc1cc2nc3c(c(=O)n2[nH]1)CCCC3 as the compound, how does the Potency read?
Its Potency is inconclusive: 11.2 µM [inhibitor, partial curve, poor fit].

With Cn1cc(S(=O)(=O)CC(=O)N2CCc3ccccc32)c2ccccc21 as the compound, how does the Potency read?
Its Potency is inconclusive: 17.8 µM [inhibitor, partial curve].

With COc1ccc(CC(=O)O/N=C(\N)Cc2cccc3ccccc23)cc1 as the compound, how does the Potency read?
The Potency was inconclusive: 25.1 µM [inhibitor, single point].

For Cc1ccc(-c2cc(C(F)F)nc(NCc3cccs3)n2)cc1, which Potency is on record?
The Potency was inconclusive: 37.7 µM [inhibitor, single point].

With COc1cccc(CN2CCN(Cc3ccon3)CC2CCO)c1 (stereo unspecified) as the compound, how does the “activity, negative = inhibition” value read?
Its value is inactive: 12.9%.

How did the Potency turn out when CC1CCc2nc(NC(=O)c3ccco3)sc2C1 (stereo unspecified) was run?
Its Potency is inconclusive: 39.8 µM [inhibitor, single point].

COc1ccc2cc(C(C)CO)ccc2c1 (stereo unspecified) was tested. Which “activity, negative = inhibition” value did it give?
The value was inactive: -7.44%.

With CCc1ccccc1NC(=O)/C(=C/c1ccco1)c1ccccc1 as the compound, how does the Potency read?
Its Potency is inconclusive: 35.5 µM [inhibitor, single point].

Which activity, negative = inhibition does the source give for CN(C)C[C@H]1CCC[C@@H](CN(C)C)C1=O here?
The activity, negative = inhibition was inactive: -4.18% [at 13.5 µM].

For COc1cc2c(cc1NC(=O)CSc1nnnn1-c1ccccc1)oc1ccccc12, which “activity, negative = inhibition” value is on record?
The value was inactive: -9.46%.

COc1ccc(NC(=O)CSc2nnc(Cc3ccccc3)o2)c(OC)c1 was tested. Which Potency did it give?
The Potency was inconclusive: 22.4 µM [inhibitor, single point].

For CCOC(=O)C1CCN(Cc2ccccc2C)CC1, which Potency is on record?
Its Potency is inconclusive: 12.6 µM [inhibitor, single point].
